From PubChem BioAssay AID902 (National Center for Advancing Translational Sciences (NCATS), 2007)
In all, about 130,000 compounds went through this assay and about 1,900 (1.5%) were called active. Inconclusive means that the source gave no clear call. Such entries were picked first, then a sample of the others. Calls come from the whole dose curve; as a rule, active = well fitted cell-killing curve with a large enough effect; inconclusive = small, poorly fitted or top-dose-only effect; inactive = no such curve, though single readings can be large or run the other way. Where the call is inconclusive, the potency comes from a doubtful curve fit.

Test: qHTS Screen for Compounds that Selectively Target Cancer Cells with p53 Mutations: Cytotoxicity of p53ts Cells at the Nonpermissive Temperature; note: nearly all actives have a fitted effect of over 55% in size
Settings: H1299-p53A138V viability at 39C, ATP luminescence, 24 h; activity change, negative = cell killing: at 46.1 µM (top of the series)
% is set by controls: 0 for no effect and ±100 for the full control effect; potency is the fitted concentration of half-maximal effect; tags give direction and shape of the fitted curve.

Q: Which Potency does the source give for O=C(Nc1cc(C(=O)N2CCOCC2)ccc1N1CCCC1)c1cccs1 here?
A: Its Potency is “inactive”.

Q: For Cc1ccccc1NC(=O)Cn1cccc1, which Potency is on record?
A: The Potency was “inactive”.

Q: With CCOc1ccc(C(=O)Nc2ccc3c(c2)OCCO3)cc1Br as the compound, how does the Potency read?
A: The Potency was active: 10 µM.

Q: With COc1ccccc1-c1nc2cc(NC(=O)c3ccccc3Cl)ccc2o1 as the compound, how does the Potency read?
A: The Potency was inconclusive: 10 µM [cytotoxic, partial curve].

Q: With O=C(Nc1ccc(Cl)cc1)c1cc(S(=O)(=O)NC2CCCCCC2)ccc1F as the compound, how does the Potency read?
A: The Potency was active: 12.6 µM.

Q: With CCn1cc(SCC(=O)NCC2CCCO2)c2ccccc21 (centres undefined) as the compound, how does the Potency read?
A: The Potency was inconclusive: 20 µM [cytotoxic, single point].

Q: With COc1ccc(-c2nc3cc(NC(=O)c4ccc(C)cc4)ccc3o2)cc1Cl as the compound, how does the Potency read?
A: Its Potency is inconclusive: 25.1 µM [cytotoxic, single point].

Q: Which Potency does the source give for CCOc1ccc(NC(=O)CSc2oc(-c3ccc(C)cc3)nc2S(=O)(=O)c2ccc(C)cc2)cc1 here?
A: Its Potency is active: 0.794 µM.

Q: Which Potency does the source give for Cc1ccc(O)c(-c2n[nH]c3c2C(c2ccc(F)cc2)N(Cc2ccco2)C3=O)c1 (centres undefined) here?
A: The Potency was inconclusive: 31.6 µM [cytotoxic, single point].

Q: With Cc1ccccc1NC(=O)c1cnc2ccccn2c1=O as the compound, how does the Potency read?
A: Its Potency is active: 15.8 µM.

Q: For Cc1cccc(N2CCN(C(=O)c3cc4ccc5cccnc5c4[nH]3)CC2C)c1 (centres undefined), which Potency is on record?
A: The Potency was inconclusive: 0.708 µM [cytotoxic, single point].

Q: For COCCc1nn2c(=O)cc(COC(=O)c3ccc(Br)cc3)nc2s1, which Potency is on record?
A: The Potency was “inactive”.

Q: For CCOC(=O)c1ccc2nc(NC(=O)c3cccs3)sc2c1, which Potency is on record?
A: The Potency was inconclusive: 31.6 µM [cytotoxic, single point].

Q: For CCCCCn1c(=O)c2c(nc3n2CCN3c2ccc(Br)cc2)n(C)c1=O, which Potency is on record?
A: Its Potency is inconclusive: 3.98 µM [cytotoxic, partial curve, poor fit].

Q: With c1ccc(OCCSc2nnc3sc4ccccc4n23)cc1 as the compound, how does the Potency read?
A: The Potency was inconclusive: 12.6 µM [cytotoxic, partial curve].

Q: Which Potency does the source give for COc1ccc(C(=O)NCC(c2ccc3c(c2)OCO3)N2CCOCC2)cc1OC (centres undefined) here?
A: The Potency was inconclusive: 7.94 µM [cytotoxic, partial curve].

Q: Which Potency does the source give for CCn1c(CC2C(=O)N(C)c3ccc(Br)cc32)nc2ccccc2c1=O (centres undefined) here?
A: The Potency was “inactive”.

Q: For CCC1CN(C(=O)N2CCC(C(=O)N3CCN(c4cc(C)ccc4C)CC3)CC2)c2ccccc2O1 (centres undefined), which Potency is on record?
A: Its Potency is inconclusive: 31.6 µM [cytotoxic, single point].

Q: With CC(Sc1nc2c([nH]c3ccccc32)c(=O)n1-c1ccccc1)c1ccccc1 (centres undefined) as the compound, how does the Potency read?
A: Its Potency is inconclusive: 31.6 µM [cytotoxic, partial curve].

Q: With Cc1ccc(-c2nnc(Nc3ccccc3)o2)cc1 as the compound, how does the Potency read?
A: The Potency was active: 3.16 µM.

Q: Which Potency does the source give for CCCN1C(=O)C2(c3ccccc31)c1c(oc3ccccc3c1=O)C(=O)N2CCCOC(C)C (centres undefined) here?
A: The Potency was “inactive”.

Q: Which Potency does the source give for COc1ccccc1OCc1nc(-c2cccc(C)c2)no1 here?
A: Its Potency is inconclusive: 12.6 µM [cytotoxic, single point].

Q: With OCC1OC(n2cnc3c(Cl)nc(Cl)nc32)C(O)C1O (centres undefined) as the compound, how does the Potency read?
A: The Potency was inconclusive: 31.6 µM [cytotoxic, single point].

Q: With COc1cccc(CNC(=O)c2cc3ccc4cccnc4c3[nH]2)c1 as the compound, how does the Potency read?
A: The Potency was inconclusive: 1.41 µM [cytotoxic, single point].

Q: For CCOc1ccc(N2CC(c3nc4ccccc4n3CCOc3ccccc3)CC2=O)cc1 (centres undefined), which Potency is on record?
A: Its Potency is inconclusive: 0.0398 µM [cytotoxic, full curve, poor fit].

Q: With CCCNC(=O)c1cc2nc(-c3ccccc3)cc(C(F)(F)F)n2n1 as the compound, how does the Potency read?
A: The Potency was inconclusive: 0.02 µM [cytotoxic, full curve, poor fit].

Q: For O=C(COc1ccc(F)cc1)Nc1ccc(Cl)c(-c2nc3ccccc3[nH]2)c1, which Potency is on record?
A: Its Potency is inconclusive: 31.6 µM [cytotoxic, single point].

Q: With Cc1noc(C)c1S(=O)(=O)NCCc1csc2nc(-c3ccc(Cl)cc3)nn12 as the compound, how does the Potency read?
A: Its Potency is inconclusive: 17.8 µM [cytotoxic, partial curve, poor fit].

Q: Which Potency does the source give for Cc1ccc(Nc2nc(N)nc(CSc3nccn3C)n2)cc1 here?
A: The Potency was inconclusive: 12.6 µM [cytotoxic, single point].

Q: Which Potency does the source give for FC(F)(F)c1cc(CO[C@@H]2CCCN[C@H]2c2ccccc2)cc(C(F)(F)F)c1 here?
A: Its Potency is active: 20 µM.

Q: With COc1ccc(-c2cn3c(n2)sc2cc(C(=O)Nc4ccc(C)cc4C)ccc23)cc1 as the compound, how does the Potency read?
A: The Potency was “inactive”.

Q: For O=C1CSC(=S)N1Cc1cccnc1, which Potency is on record?
A: The Potency was inconclusive: 31.6 µM [cytotoxic, single point].

Q: With CCOc1ccc(NC(=O)CCSc2nc(-c3ccc4c(c3)OCO4)cc(C(F)(F)F)n2)cc1 as the compound, how does the Potency read?
A: The Potency was inconclusive: 10 µM [cytotoxic, partial curve].

Q: With COC1=C(OC)C(=O)c2ccccc2C1=O as the compound, how does the Potency read?
A: The Potency was active: 3.98 µM.

Q: Which Potency does the source give for COc1ccc(OCc2cccc(C(=O)N3CCCC3)c2)cc1 here?
A: Its Potency is inconclusive: 12.6 µM [cytotoxic, partial curve].

Q: For CC(C)CO/N=C1/C[C@@H](O)[C@@H](O)[C@@H]2[C@@H]3C(=O)N(c4cccc(Oc5ccccc5)c4)C(=O)[C@H]3CC[C@@H]12, which activity change, negative = cell killing is on record?
A: The activity change, negative = cell killing was inactive: 6.39% [at 9.22 µM].

Q: For Cc1nc2sc(C(c3cccs3)N3CCN(c4ccccc4)CC3)c(O)n2n1 (centres undefined), which Potency is on record?
A: The Potency was inconclusive: 10 µM [cytotoxic, partial curve].

Q: For COc1cc2oc(-c3ccccc3)cc(=O)c2cc1O, which Potency is on record?
A: The Potency was active: 7.94 µM.

Q: With Cc1cccc(CN2C(=O)c3ccccc3Sc3ccc(C(=O)NCc4cccs4)cc32)c1 as the compound, how does the Potency read?
A: The Potency was inconclusive: 31.6 µM [cytotoxic, single point].

Q: Which Potency does the source give for Cc1ccc(NC(=O)CCCn2nc(C)c3sc4ccccc4c3c2=O)c(Cl)c1 here?
A: The Potency was inconclusive: 10 µM [cytotoxic, partial curve].

Q: For COc1ccc(-c2cc(C(=O)N3CCCc4ccccc43)no2)cc1, which Potency is on record?
A: The Potency was inconclusive: 20 µM [cytotoxic, partial curve].

Q: Which Potency does the source give for COc1ccc(/C=C\C(=O)Nc2ccccc2C(=O)O)cc1OC here?
A: The Potency was active: 12.6 µM.

Q: Which Potency does the source give for Cn1c(=O)n(C)c2cc(NS(=O)(=O)c3ccc(C(C)(C)C)cc3)c(NCc3ccccc3)cc21 here?
A: The Potency was inconclusive: 15.8 µM [cytotoxic, single point].

Q: Which Potency does the source give for Cc1cccc(N2CCN(C(=O)CSCc3c(C)noc3C)CC2)c1C here?
A: Its Potency is “inactive”.

Q: Which Potency does the source give for CC(=O)Nc1ccc(NC(=O)CCc2c(C)nc3c(c(C)nn3-c3ccccc3)c2C)cc1 here?
A: Its Potency is “inactive”.

Q: With CC(=O)Nc1ccc(-c2cc(C(=O)O)c3cc4ccccc4cc3n2)cc1 as the compound, how does the Potency read?
A: Its Potency is inconclusive: 3.16 µM [cytotoxic, partial curve].

Q: For CCC(C(=O)N1CCN(c2ccc(OC)cc2)CC1)n1nc(C)n2c(cc3occc32)c1=O (centres undefined), which Potency is on record?
A: The Potency was inconclusive: 11.2 µM [cytotoxic, single point].

Q: Which Potency does the source give for CCc1ccccc1Nc1cc(C(=O)NCCCN(C)C2CCCCC2)c2ccccc2n1 here?
A: The Potency was inconclusive: 15.8 µM [cytotoxic, single point].

Q: With Cc1ccn2c(Nc3ccccc3C)c(-c3cccnc3)nc2c1 as the compound, how does the Potency read?
A: The Potency was inconclusive: 15.8 µM [cytotoxic, partial curve, poor fit].

Q: Which Potency does the source give for Nc1ccc2oc(-c3cccc(Br)c3)nc2c1 here?
A: Its Potency is inconclusive: 20 µM [cytotoxic, partial curve].

Q: Which Potency does the source give for CCOc1ccc(CNC(=O)Cc2ccc(NC(=O)N3CCCCc4ccccc43)cc2)cc1OC here?
A: Its Potency is inconclusive: 1 µM [cytotoxic, full curve, poor fit].

Q: For Clc1ccc(-c2nnn3c2nc(NCc2ccc4c(c2)OCO4)c2ccccc23)cc1, which Potency is on record?
A: Its Potency is “inactive”.

Q: For COCCNc1ccnc(-c2ccccc2CN(C)C)n1, which Potency is on record?
A: The Potency was “inactive”.

Q: For CN=c1scc(-c2cccs2)n1/N=C/c1ccc(O)c(O)c1O, which Potency is on record?
A: The Potency was active: 6.31 µM.

Q: For CC(=O)[C@@H](C)CCO[C@@]1(C)OCC[C@@H]1C, which activity change, negative = cell killing is on record?
A: Its activity change, negative = cell killing is inactive: -20.7% [at 9.22 µM].

Q: For COc1ccc(C2c3c(-c4ccc(F)cc4)n[nH]c3C(=O)N2c2ccccc2)cc1OC (centres undefined), which Potency is on record?
A: The Potency was inconclusive: 20 µM [cytotoxic, single point].

Q: For Nc1c(-c2nc(-c3ccccc3Cl)no2)nnn1-c1ccccc1F, which Potency is on record?
A: The Potency was “inactive”.

Q: With COC(=O)c1cc(C)nc2c1c(=O)nc(SCc1c(C)cc(C)cc1C)n2C1CC1 as the compound, how does the Potency read?
A: Its Potency is inconclusive: 10 µM [cytotoxic, partial curve].

Q: With COc1ccccc1NC(=O)Nc1ccc2c(c1)OCCO2 as the compound, how does the Potency read?
A: The Potency was active: 12.6 µM.

Q: For Cc1ccc(C(=O)CC2(O)C(=O)N(Cc3ccccc3)c3ccc(Br)cc32)cc1 (centres undefined), which Potency is on record?
A: The Potency was inconclusive: 20 µM [cytotoxic, single point].

Q: Which Potency does the source give for CCCOc1cccc(C2c3c(oc4cc(C)c(C)cc4c3=O)C(=O)N2CCCN2CCOCC2)c1 (centres undefined) here?
A: The Potency was “inactive”.

Q: For CSc1cccc(NC(=O)CN(C)S(=O)(=O)c2ccc3c(c2)CCCN3C(C)=O)c1, which Potency is on record?
A: Its Potency is inconclusive: 7.94 µM [cytotoxic, full curve, poor fit].

Q: With Cc1ccc(-c2n[nH]c3c2C(c2cccs2)N(c2ccc(Cl)cc2)C3=O)cc1 (centres undefined) as the compound, how does the Potency read?
A: Its Potency is inconclusive: 31.6 µM [cytotoxic, single point].

Q: Which Potency does the source give for Cc1ccc(-n2nc3c(N4CCC(C(=O)NCCC(C)C)CC4)nnc(C)c3c2C)cc1 here?
A: Its Potency is inconclusive: 25.1 µM [cytotoxic, single point].

Q: Which Potency does the source give for CCOc1ccccc1NC(=O)c1nnn(CC(=O)Nc2ccccc2CC)c1N here?
A: Its Potency is “inactive”.

Q: For O=c1cc(-c2cccc(O)c2)oc2c(O)c(O)ccc12, which Potency is on record?
A: Its Potency is active: 25.1 µM.

Q: Which Potency does the source give for COc1ccc(NC(=O)c2[nH]nc3c2CSc2ccccc2-3)c(OC)c1 here?
A: The Potency was inconclusive: 0.891 µM [cytotoxic, partial curve].

Q: Which Potency does the source give for Cc1cccc(NC2=C(NC(=O)c3ccccc3)C(=O)c3ccccc3C2=O)c1 here?
A: Its Potency is inconclusive: 12.6 µM [cytotoxic, partial curve, poor fit].

Q: For COc1ccc(Cl)cc1NC(=O)CCCS(=O)(=O)c1nc(-c2ccc(OC)c(OC)c2)cc(C(F)(F)F)n1, which Potency is on record?
A: The Potency was active: 3.16 µM.
